Test results taken from article PMC4336329 (PLoS ONE, 2015).
About 14,000 (4.5%) of roughly 310,000 compounds showed an effect of 50% or more. Effects have a minus sign here. The list shows a part of the results.

The compounds below were run against human ether-à-go-go-related gene (hERG) potassium channel (human, UniProt Q12809) (assay: primary screen, population patch clamp on CHO cells stably expressing hERG).
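Also: peak tail current of the secondary pulse compared with the same well before compound.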

Sequence of human ether-à-go-go-related gene (hERG) potassium channel (Q12809 whole entry, looked up): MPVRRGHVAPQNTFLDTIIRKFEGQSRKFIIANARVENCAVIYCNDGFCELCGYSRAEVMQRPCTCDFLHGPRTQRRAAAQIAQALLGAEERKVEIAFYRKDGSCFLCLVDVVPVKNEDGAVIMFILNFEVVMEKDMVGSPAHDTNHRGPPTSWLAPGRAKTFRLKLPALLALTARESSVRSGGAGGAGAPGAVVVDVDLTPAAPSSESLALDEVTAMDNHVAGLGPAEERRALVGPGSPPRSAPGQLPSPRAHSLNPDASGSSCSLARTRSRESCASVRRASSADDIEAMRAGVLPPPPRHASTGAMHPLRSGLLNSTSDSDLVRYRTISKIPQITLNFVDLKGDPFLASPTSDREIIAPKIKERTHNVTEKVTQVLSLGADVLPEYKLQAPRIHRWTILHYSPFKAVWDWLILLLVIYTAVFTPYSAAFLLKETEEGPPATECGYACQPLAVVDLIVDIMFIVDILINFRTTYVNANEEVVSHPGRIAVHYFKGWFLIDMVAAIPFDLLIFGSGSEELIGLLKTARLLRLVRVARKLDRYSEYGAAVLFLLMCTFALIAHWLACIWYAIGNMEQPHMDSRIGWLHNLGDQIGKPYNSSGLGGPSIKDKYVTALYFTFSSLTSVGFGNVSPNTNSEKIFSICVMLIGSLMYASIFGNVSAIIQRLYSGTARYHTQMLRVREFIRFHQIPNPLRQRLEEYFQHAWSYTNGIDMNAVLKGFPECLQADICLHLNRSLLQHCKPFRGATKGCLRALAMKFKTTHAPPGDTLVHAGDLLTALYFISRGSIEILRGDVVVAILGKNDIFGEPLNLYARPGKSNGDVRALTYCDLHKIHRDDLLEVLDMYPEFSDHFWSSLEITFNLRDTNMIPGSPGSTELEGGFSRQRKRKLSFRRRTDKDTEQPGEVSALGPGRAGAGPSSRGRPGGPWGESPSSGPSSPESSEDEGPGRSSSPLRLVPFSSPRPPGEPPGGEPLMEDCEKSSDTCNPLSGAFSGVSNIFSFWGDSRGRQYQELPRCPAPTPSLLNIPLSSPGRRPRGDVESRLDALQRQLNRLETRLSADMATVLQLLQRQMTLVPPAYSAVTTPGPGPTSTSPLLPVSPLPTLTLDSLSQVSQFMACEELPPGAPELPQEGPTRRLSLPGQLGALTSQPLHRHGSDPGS

SMILES | hERG current change (%, negative = inhibition) at 10uM [%]
COc1ccccc1CCc1nnc(CCC(=O)NCCOc2cccnc2)o1 | 7.9
O=C(/C=C/c1ccco1)NC(=S)Nc1ccccc1N1CCCC1 | -9.61
O=C(c1ccc(Cl)cc1Cl)N1CCN(c2ccc(N3CCOCC3)nn2)CC1 | -27
CC(C)(C)N1C(=O)NC(=O)/C(=C\c2ccc3c(c2)CCN3CCCCl)C1=O | -0.0837
CSc1n[nH]c(=S)n1N | 26.3
CCOc1ccc(-c2nc3n(c(=O)c2C#N)CCCS3)cc1 | 5.87
O=C(c1cc2ccccc2o1)N1CCN(c2cccc(Cl)c2)CC1 | -16.3
Cc1ccc2nc(N3C(=O)C(O)=C(C(=O)c4ccco4)C3c3ccc(O)cc3)sc2c1.O=C(O)C(=O)O (stereo not shown) | 25.4
CC1CC(C)CN(S(=O)(=O)c2cc3c4c(c2)CCN4C(=O)CC3)C1 (stereo not shown) | -3.3
CC1CCN(C(=O)CSc2nc3ccccc3c(=O)n2Cc2ccc3c(c2)OCO3)CC1 | -13.6
CCC(=O)Nc1ccc(-c2cc(-c3ccccc3)nc(-c3ccc(NC(=O)CC)cc3)n2)cc1 | 19.1
Cc1cccc(NC(=O)CSc2nnc(-c3ccncc3)n2CC2CCCO2)c1 (stereo not shown) | -19.5
O=C(COC(=O)c1cncc(Br)c1)NC1CCCCC1 | 16.1
COc1ccc(-n2ncc(S(=O)(=O)c3ccccc3)c2-c2ccc(Cl)cc2)cc1 | 2.36
CCOC(=O)c1[nH]c2c(c1C)C(=O)CC(c1ccc(OCC)c(OC)c1)C2 (stereo not shown) | -7.59
CN(C)S(=O)(=O)c1ccc(N2CCCC2)c(C(=O)N2CCC(C(N)=O)CC2)c1 | 23.9
CCN(CC)CCN1C(=O)C(=O)/C(=C(/O)c2ccc(OC(C)C)cc2)C1c1cccs1 (stereo not shown) | 0.529
O=C(COC(=O)[C@@H]1CC(O)CN1S(=O)(=O)c1ccc2c(c1)OCCO2)Nc1ccccc1F (stereo partly shown) | 14.5
CCn1c(SCC(=O)NNC(=O)Cc2ccccc2)nnc1-c1ccncc1 | 7.12
Cc1ccc(N(C(=O)CNC(=O)c2ccco2)C(C(=O)NC2CCCC2)c2ccncc2)cc1C (stereo not shown) | 12.5
N#CC1(NC(=O)CN2C(=O)NC(c3ccccc3)(c3ccccc3)C2=O)CCCC1 | -55
CC1CCCN(S(=O)(=O)c2ccc(S(=O)(=O)N3CCC4(CC3)OCCO4)cc2)C1 (stereo not shown) | 9.55
COC(=O)C(Cc1ccccc1)NC(=O)CCNC(=O)c1ccc(Br)cc1 (stereo not shown) | -41.3
CS(=O)(=O)N1CCc2cc(C(=O)O)ccc21 | 14.4
COC(=O)[C@H](CCSC)NC(=O)N1CCN(Cc2ccccc2)CC1 | -12.5
CCCc1nc2ccccc2c2nc(N)nn12 | -0.0674
O=C(c1ccccc1)N1CCN(C(=O)c2nn3c(C(F)(F)F)cc(-c4ccccc4)nc3c2Br)CC1 | -5.79
Cn1nc(C(=O)NCCCN2CCCCC2)c2c1-c1ccccc1SC2 | -66

SMILES | hERG current change (%, negative = inhibition) at 10uM [%]
O=C(O)COc1ccccc1/C=N/NC(=O)c1cccc(S(=O)(=O)Nc2cccc(Cl)c2)c1 | 18.6
COC(=O)C1=NNC2(c3ccc(C)cc3)C(=O)N(c3ccc(C)cc3)C(=O)C12 (stereo not shown) | 16.5
CC(=O)N1CCN(C(=O)COC(=O)c2oc3ccccc3c2C)CC1 | 3.98
O=C(N(c1ccccc1)c1ccccc1)N(c1ccccc1)c1ccccc1 | -7.06
O=C(CCSc1nnc2scc(-c3ccccc3)n12)NCc1ccc2c(c1)OCO2 | -11
COC(=O)CSc1nc2ccc(C)cc2cc1C#N | 21.8
CC1C(c2ccccc2)N(C)CCC12NC(=O)NC2=O (stereo not shown) | -1.73
COc1ccc(NC(c2ccccc2)P(=O)(Oc2ccccc2)Oc2ccccc2)cc1 (stereo not shown) | 5.66
CCC1CCC2(CC1)NNC(=S)NN2 | 1.8
CCOc1nc(-c2ccccc2)ccc1-c1noc(COc2ccccc2)n1 | -6.14
O=C(Nc1c(C(=O)O)oc2ccc(Br)cc12)c1ccccc1 | 0.937
C=CCn1c(-c2ccccc2)c[nH]c1=S | 11.1
Clc1ccc(-n2cccc2CN2CCc3c([nH]c4ccccc34)C2c2ccccn2)nc1 (stereo not shown) | -77
COc1nc(Nc2ccccc2)nc(OC)n1 | 5.84
Cc1cccc(C(=O)OCC(=O)Nc2ccc(F)cc2)c1 | 11
Fc1cccc(Cl)c1CNn1cn[nH]c1=S | 12.3
O=C(CSc1nc2ccccc2n1Cc1ccccc1)N/N=C/c1ccco1 | -60.7
Cc1cccc(Cn2c(C)nc3c(N)c(C)c(C)cc32)c1 | -7.08
CCOC(=O)c1c(NC(=O)COC(=O)Cn2cnc3ccccc32)sc2c1CCC(C)C2 (stereo not shown) | -3.78
Cc1nn(-c2ccccn2)c(C)c1Oc1ccccc1O | 8.9
N#Cc1cccc(S(=O)(=O)NCc2nnc3ccccn23)c1 | 13.6
O=C(Nc1ccc(C(=O)O)cc1)/C(=C\c1ccccc1)NC(=O)c1ccco1 | 19.8
CCN(Cc1ccc2c(c1)OCCO2)C(=O)CN1C(=O)NC2(CCCCC2)C1=O | -6.49
OCC1(CCCc2ccccc2)CCN(C2CCSCC2)CC1 | -80.5
Cc1cc(C(=O)COC(=O)c2cc(Cl)c(O)c(Cl)c2)c(C)n1C | -9.42
Cc1ccc(-c2cc(C(=O)N3CCc4ccccc4C3)no2)cc1 | 15.2
COc1cc(C(CC(=O)Nc2ncccc2C)N2Cc3ccccc3C2=O)cc(OC)c1OC (stereo not shown) | 4.39
